± gives the standard error. Variants at the background level are over-represented here.
B1: glmS ribozyme (parent)
chain: AUAAAAGCGCCAGAACUACAGAAAUGUAGUUGACGAGGAGGAGGUUUAUCGAAUUUUCGGCGGAUGCCUCCAAA

Experiments:
Settings in all cases: with glucosamine-6-phosphate
glucosamine-6-phosphate [1] = variants of: B1; assay: self-cleavage kobs at 640 uM GlcN6P; higher = faster cleavage; RNA array
Outline: (§1)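 Glucosamine-6-phosphate (40 μM to 10 mM) in HEPES/KCl/Mg(OAc)2 buffer was flowed over sequenced MiSeq chips, and tiles were imaged over ~14 h. Barcoded ribozyme variants there had been transcribed in situ by E. coli RNA polymerase and were tracked through a hybridised Cy3 probe at 37 °C. One- or two-exponential decay fits to per-tile medians, normalised to baseline and to non-cleaving reference variants, gave kobs. kcat and KM came from weighted Michaelis–Menten fits across concentrations.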

glucosamine-6-phosphate [2] = variants of: B1; assay: self-cleavage kobs at 2500 uM GlcN6P; higher = faster cleavage; RNA array
Outline: as §1

glucosamine-6-phosphate [3] = variants of: B1; assay: self-cleavage kobs at 160 uM GlcN6P; higher = faster cleavage; RNA array
Outline: as §1

glucosamine-6-phosphate [4] = variants of: B1; assay: self-cleavage kobs at 10000 uM GlcN6P; higher = faster cleavage; RNA array
Outline: as §1

Row | Variant | self-cleavage kobs at 640 uM GlcN6P (glucosamine-6-phosphate [1]) | self-cleavage kobs at 2500 uM GlcN6P (glucosamine-6-phosphate [2]) | self-cleavage kobs at 160 uM GlcN6P (glucosamine-6-phosphate [3]) | self-cleavage kobs at 10000 uM GlcN6P (glucosamine-6-phosphate [4])
1 | G40A A48G G60C | < 1e-05 s⁻¹ | < 1e-05 s⁻¹ |  | 
2 | G44C A48G U57C | < 1e-05 s⁻¹ | < 1e-05 s⁻¹ |  | 
3 | G43U C58A | < 1e-05 s⁻¹ | < 1e-05 s⁻¹ | < 1e-05 s⁻¹ | 
4 | G40U G44U A64U | < 1e-05 s⁻¹ | < 1e-05 s⁻¹ |  | 
5 | G40A A53C C61U | < 1e-05 s⁻¹ |  |  | 
6 | G41U U49C | < 1e-05 s⁻¹ |  | < 1e-05 s⁻¹ | 
7 | G43U U57G | < 1e-05 s⁻¹ | < 1e-05 s⁻¹ | < 1e-05 s⁻¹ | < 1e-05 s⁻¹
8 | G44U U49C C70G | < 1e-05 s⁻¹ |  |  | 
9 | G44A A52G U56G C70G | < 1e-05 s⁻¹ | < 1e-05 s⁻¹ |  | < 1e-05 s⁻¹
10 | U46G C58U C61U | < 1e-05 s⁻¹ | < 1e-05 s⁻¹ |  | 
11 | U47C G63U | < 1e-05 s⁻¹ |  | < 1e-05 s⁻¹ | < 1e-05 s⁻¹
12 | U47C G63A | < 1e-05 s⁻¹ |  |  | 
13 | G41U U45A G51C C58G | < 1e-05 s⁻¹ | < 1e-05 s⁻¹ |  | 
14 | U46C G59C | < 1e-05 s⁻¹ |  |  | 
15 | G44C U47A C50G | < 1e-05 s⁻¹ | < 1e-05 s⁻¹ |  | 
16 | A42U C67A U69G C71U | 4.51e-05 ± 2e-05 s⁻¹ | 7.23e-05 ± 1.9e-05 s⁻¹ |  | 
17 | U46G A48U | 3.53e-05 ± 1.4e-05 s⁻¹ | 0.000128 ± 2.5e-05 s⁻¹ |  | 0.000117 ± 1.6e-05 s⁻¹
18 | A42U U54C A64C | < 1e-05 s⁻¹ |  |  | 
19 | G41A U56G | 5.1e-05 ± 1.4e-05 s⁻¹ | 0.000109 ± 3.5e-05 s⁻¹ |  | 0.000169 ± 4.7e-05 s⁻¹
20 | G40U G41C C70A | 6.65e-05 ± 1.8e-05 s⁻¹ | 0.000546 ± 0.00013 s⁻¹ |  | 

Row | Variant | self-cleavage kobs at 640 uM GlcN6P (glucosamine-6-phosphate [1]) | self-cleavage kobs at 2500 uM GlcN6P (glucosamine-6-phosphate [2]) | self-cleavage kobs at 160 uM GlcN6P (glucosamine-6-phosphate [3]) | self-cleavage kobs at 10000 uM GlcN6P (glucosamine-6-phosphate [4])
21 | G43A G60C | < 1e-05 s⁻¹ | < 1e-05 s⁻¹ | < 1e-05 s⁻¹ | < 1e-05 s⁻¹
22 | G44A A52G G62U C67G | < 1e-05 s⁻¹ | < 1e-05 s⁻¹ |  | 
23 | G43C U49A | < 1e-05 s⁻¹ |  |  | 
24 | A48U C61U G62A | < 1e-05 s⁻¹ | < 1e-05 s⁻¹ |  | 
25 | G44U U69C | < 1e-05 s⁻¹ |  | < 1e-05 s⁻¹ | 
26 | G44U G59U G63C | < 1e-05 s⁻¹ | < 1e-05 s⁻¹ |  | 
27 | U45C U47G G51U | < 1e-05 s⁻¹ |  |  | 
28 | G44U U56C C58G | < 1e-05 s⁻¹ |  | < 1e-05 s⁻¹ | 
29 | G44U U47C A48C U69G | < 1e-05 s⁻¹ | < 1e-05 s⁻¹ |  | 
30 | G40U G41U G44C C50A G60A | < 1e-05 s⁻¹ |  |  | 
31 | A39G G43C | < 1e-05 s⁻¹ |  |  | 
32 | U45A A48C | 0.000131 ± 2.3e-05 s⁻¹ |  |  | 
33 | A42U A53G G60A C70U | < 1e-05 s⁻¹ |  |  | < 1e-05 s⁻¹
34 | A48C G66U | < 1e-05 s⁻¹ |  |  | 
35 | A39C A53U G62A | < 1e-05 s⁻¹ |  |  | 
36 | U46C U55C G63U | < 1e-05 s⁻¹ |  |  | 
37 | A42U A53G U57A | < 1e-05 s⁻¹ |  |  | 
38 | G44C G63U | < 1e-05 s⁻¹ | < 1e-05 s⁻¹ |  | < 1e-05 s⁻¹
39 | U45C G63C | < 1e-05 s⁻¹ | < 1e-05 s⁻¹ | < 1e-05 s⁻¹ | < 1e-05 s⁻¹
40 | A48G A53G C67G | 6.02e-05 ± 2.2e-05 s⁻¹ | 6.1e-05 ± 2.3e-05 s⁻¹ |  | 

Row | Variant | self-cleavage kobs at 640 uM GlcN6P (glucosamine-6-phosphate [1]) | self-cleavage kobs at 2500 uM GlcN6P (glucosamine-6-phosphate [2]) | self-cleavage kobs at 160 uM GlcN6P (glucosamine-6-phosphate [3]) | self-cleavage kobs at 10000 uM GlcN6P (glucosamine-6-phosphate [4])
41 | G41U G43C C70G | < 1e-05 s⁻¹ |  |  | 
42 | A42C U46G U49A | < 1e-05 s⁻¹ |  |  | 
43 | A39G G44U U45A G51U | < 1e-05 s⁻¹ | < 1e-05 s⁻¹ | < 1e-05 s⁻¹ | 
44 | G40U G60A | < 1e-05 s⁻¹ |  | < 1e-05 s⁻¹ | < 1e-05 s⁻¹
45 | U45C U49A | < 1e-05 s⁻¹ | < 1e-05 s⁻¹ | < 1e-05 s⁻¹ | < 1e-05 s⁻¹
46 | U45A U49C | < 1e-05 s⁻¹ |  |  | < 1e-05 s⁻¹
47 | G40C G41C C68A | < 1e-05 s⁻¹ |  |  | 
48 | U46A U54G C70A | 5.86e-05 ± 2.1e-05 s⁻¹ | 0.000289 ± 7.5e-05 s⁻¹ |  | 
49 | U46A A52G G63U | < 1e-05 s⁻¹ |  |  | 
50 | A39U G41U U47A A52C | < 1e-05 s⁻¹ | < 1e-05 s⁻¹ |  | 
51 | G43C A53G C70A | < 1e-05 s⁻¹ |  |  | 
52 | A42U U45G U54C U57G | < 1e-05 s⁻¹ |  |  | 
53 | G40A U57A C71U | 6.1e-05 ± 2.3e-05 s⁻¹ | 0.000149 ± 3.4e-05 s⁻¹ |  | 
54 | G40U A42G G59C C68A | < 1e-05 s⁻¹ | < 1e-05 s⁻¹ |  | 
55 | G43C G51U C61G | < 1e-05 s⁻¹ | < 1e-05 s⁻¹ |  | 
56 | G44U G59A G66A C70U | < 1e-05 s⁻¹ | < 1e-05 s⁻¹ |  | 
57 | G40U G41A U56G | < 1e-05 s⁻¹ |  |  | 
58 | G43A A52U | < 1e-05 s⁻¹ | < 1e-05 s⁻¹ | < 1e-05 s⁻¹ | 
59 | G40U U47G U49G A53U U54A G62U | < 1e-05 s⁻¹ | < 1e-05 s⁻¹ | < 1e-05 s⁻¹ | 
60 | G41U U49A U69C | < 1e-05 s⁻¹ | < 1e-05 s⁻¹ |  | 
